Whole data set: some 33,000 sequences, median “E-score (-0.5 to 0.5)” near -0.041, cut for the highest 2% near 0.37. The list shows a part of the results.
Biological target: T1, Ecm22 (UniProt Q05958)
T1 sequence: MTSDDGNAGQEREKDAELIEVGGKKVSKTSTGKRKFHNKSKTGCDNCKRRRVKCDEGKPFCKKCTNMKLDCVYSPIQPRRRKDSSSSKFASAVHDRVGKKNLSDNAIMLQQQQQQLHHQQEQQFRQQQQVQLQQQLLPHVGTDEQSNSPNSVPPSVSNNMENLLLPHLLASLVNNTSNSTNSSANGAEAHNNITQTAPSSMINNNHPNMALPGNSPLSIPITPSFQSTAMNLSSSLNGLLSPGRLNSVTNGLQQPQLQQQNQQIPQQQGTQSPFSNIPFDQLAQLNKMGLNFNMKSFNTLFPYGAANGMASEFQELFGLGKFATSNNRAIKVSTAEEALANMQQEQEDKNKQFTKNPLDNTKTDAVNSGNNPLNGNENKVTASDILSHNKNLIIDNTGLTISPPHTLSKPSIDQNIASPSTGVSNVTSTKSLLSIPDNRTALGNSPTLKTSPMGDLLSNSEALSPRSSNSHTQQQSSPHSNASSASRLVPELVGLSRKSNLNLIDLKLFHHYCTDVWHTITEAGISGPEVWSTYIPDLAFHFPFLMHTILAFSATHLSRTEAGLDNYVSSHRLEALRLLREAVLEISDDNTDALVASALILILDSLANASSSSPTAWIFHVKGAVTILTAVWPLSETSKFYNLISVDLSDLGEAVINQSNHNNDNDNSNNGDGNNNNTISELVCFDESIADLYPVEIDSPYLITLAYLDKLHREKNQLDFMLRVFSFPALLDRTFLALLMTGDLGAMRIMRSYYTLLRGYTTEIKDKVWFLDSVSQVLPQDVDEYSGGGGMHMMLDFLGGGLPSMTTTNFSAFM
Assay: PBM E-score (8-mer binding enrichment) (E-score (-0.5 to 0.5)); higher = stronger / more preferred TF binding; most listed sequences are background and not binding sites
Settings: protein concentration: 200 nM; construct: GST-full length
In short: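 Yeast transcription factors, full-length or as DNA-binding domains, were expressed with a GST tag using PURExpress in vitro transcription/translation. At about 100-200 nM they were applied to universal all-10-mer Agilent arrays, double-stranded by primer extension on fresh or once-stripped slides. Fluorescent anti-GST detected bound protein, and masliner normalised the scans. E-scores for ungapped eight-base words, pooled with reverse complements, came from the Universal PBM Analysis Suite.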

Row | Sequence | PBM E-score
1 | TGGCGCCA | -0.158
2 | ACTGGGTC | -0.27
3 | ATGGTATA | 0.0457
4 | GGAAAGAA | -0.177
5 | CGGGGTCA | 0.12
6 | TGCGCCAA | -0.162
7 | CCTGGGAC | -0.314
8 | AACAAGTA | -0.12
9 | CCCTCCCA | -0.107
10 | AACCTCTG | -0.134
11 | GCTTACGA | 0.386
12 | CGTCTCAA | -0.0951
13 | AAAGAAAA | 0.0442
14 | ATTCTAAC | -0.0713
15 | GTAATAGA | 0.0326
16 | AGTATACG | 0.433
17 | AATTTACA | -0.0707
18 | CCCCTTAC | 0.0401
19 | CAATAGCA | -0.291
20 | ACTACGCC | -0.224
21 | ATAACATC | 0.0136
22 | CAATTGTA | -0.0178

Row | Sequence | PBM E-score
23 | ATCAGATC | -0.296
24 | ACAACCCC | -0.089
25 | GATGGTAC | 0.179
26 | AGACTACC | -0.0547
27 | GCATAGCC | -0.178
28 | ATCAAACC | -0.0993
29 | CGTGGATA | 0.207
30 | AACGAGTA | 0.433
31 | ACGTTCAG | -0.0561
32 | GCGGTACA | -0.0699
33 | ATCCAGTC | -0.109
34 | AAGCGGTC | -0.0833
35 | AGCACACT | -0.00911
36 | CTGTTCGA | -0.116
37 | GGGTGAAC | -0.056
38 | CTAACGAA | 0.219
39 | ATTCCTCC | -0.135
40 | AAGTGATT | -0.00614
41 | GACTTTTA | -0.222
42 | CTGTTGCC | -0.265
43 | ATAGACCG | 0.0119
44 | CTTCGCTC | 0.275

Row | Sequence | PBM E-score
45 | GAAATCCA | -0.00293
46 | CTGCCGTC | 0.0239
47 | CAGCTGGG | -0.053
48 | GGTTAATA | 0.056
49 | ATACGCGG | 0.248
50 | AGGGACTG | -0.399
51 | GCAAAAGA | -0.103
52 | GTGTTTAA | -0.0622
53 | ACGATTAG | 0.303
54 | ATAGCCCG | -0.0381
55 | CCTGGGGC | -0.105
56 | AACTGCTC | -0.0808
57 | CGCTCTCC | -0.00221
58 | ACATGAAT | -0.0433
59 | CCCCTCCA | -0.144
60 | AGATTCCC | -0.133
61 | CTATAACA | -0.228
62 | ACGATGGG | 0.246
63 | CATTTCAC | -0.102
64 | TAATCAGA | -0.156
65 | CTCCGCAC | -0.158
66 | GCCCTCAC | -0.19

Row | Sequence | PBM E-score
67 | CATCTGCC | -0.145
68 | AACAGATC | 0.0569
69 | ACGCGCCC | 0.0332
70 | GTTGGCTA | -0.174
71 | GGGTTACC | -0.00868
72 | CCAGTCCG | -0.071
73 | CCATTATC | 0.0799
74 | ATAACGGA | 0.0568
75 | AGGCTTAT | -0.281
76 | ATAGCCTA | -0.0945
77 | GCTGCTAA | -0.14
78 | AATACAGG | -0.0199
79 | CGTGCAAC | 0.0729
80 | GTCTTAGA | -0.273
81 | AGAGCAAG | -0.142
82 | ACACGAGT | 0.24
83 | GGCCACCA | -0.161
84 | CGTCCATA | -0.0279
85 | GCGGTATA | -0.0371
86 | CGGAATTA | 0.134
